# The list shows a part of the results.
# Tests used:
# Assay in all cases: glycan array binding signal (z-score within array); higher = stronger binding
# Settings in all cases: glycan notation: IUPAC condensed, linker removed
# [1] = biological target: Fuc(a1-2)[GalNAc(a1-3)]Gal(b1-3)GlcNAc(b1-3)GalNAc
# Procedure, shortened: (§1)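 Glycan array binding is given as a within-array Z-score, which can be read as non-binding when negative. The arrays, 3228 of them, came from the Consortium for Functional Glycomics database and were retained only where the protein sequence was available. Z-scores were averaged across arrays of the same protein sequence at different concentrations or buffers and across linkers.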
# [2] = biological target: Fuc(a1-2)[GalNAc(a1-3)]Gal(b1-3)GlcNAc(b1-6)GalNAc
# Procedure, shortened: as §1
# [3] = biological target: Fuc(a1-2)[GalNAc(a1-3)]Gal(b1-4)Glc
# Procedure, shortened: as §1
# [4] = biological target: Fuc(a1-2)[GalNAc(a1-3)]Gal(b1-4)GlcNAc
# Procedure, shortened: as §1
# [5] = biological target: Fuc(a1-2)[GalNAc(a1-3)]Gal(b1-4)GlcNAc(b1-2)Man
# Procedure, shortened: as §1
# [6] = biological target: Fuc(a1-2)[GalNAc(a1-3)]Gal(b1-4)GlcNAc(b1-2)Man(a1-3)[Fuc(a1-2)[GalNAc(a1-3)]Gal(b1-4)GlcNAc(b1-2)Man(a1-6)]Man(b1-4)GlcNAc(b1-4)GlcNAc
# Procedure, shortened: as §1
# [7] = biological target: Fuc(a1-2)[GalNAc(a1-3)]Gal(b1-4)GlcNAc(b1-2)Man(a1-3)[Fuc(a1-2)[GalNAc(a1-3)]Gal(b1-4)GlcNAc(b1-2)Man(a1-6)]Man(b1-4)GlcNAc(b1-4)[Fuc(a1-6)]GlcNAc
# Procedure, shortened: as §1
# [8] = biological target: Fuc(a1-2)[GalNAc(a1-3)]Gal(b1-4)GlcNAc(b1-3)Gal(b1-4)GlcNAc
# Procedure, shortened: as §1
# [9] = biological target: Fuc(a1-2)[GalNAc(a1-3)]Gal(b1-4)GlcNAc(b1-3)Gal(b1-4)GlcNAc(b1-3)Gal(b1-4)GlcNAc
# Procedure, shortened: as §1
# [10] = biological target: Fuc(a1-2)[GalNAc(a1-3)]Gal(b1-4)GlcNAc(b1-3)GalNAc
# Procedure, shortened: as §1
# [11] = biological target: Fuc(a1-2)[GalNAc(a1-3)]Gal(b1-4)GlcNAc(b1-3)[Fuc(a1-2)[GalNAc(a1-3)]Gal(b1-4)GlcNAc(b1-6)]GalNAc
# Procedure, shortened: as §1
# [12] = biological target: Fuc(a1-2)[GalNAc(a1-3)]Gal(b1-4)GlcNAc(b1-6)GalNAc
# Procedure, shortened: as §1
# [13] = biological target: Fuc(a1-2)[GalNAc(a1-3)]Gal(b1-4)[Fuc(a1-3)]GlcNAc
# Procedure, shortened: as §1
# [14] = biological target: Fuc(a1-2)[GalNAc(a1-3)]Gal(b1-4)[Fuc(a1-3)]GlcNAc(b1-3)GalNAc
# Procedure, shortened: as §1
# [15] = biological target: Fuc(a1-2)[GalNAc(a1-4)]Gal(b1-4)GlcNAc
# Procedure, shortened: as §1
# [16] = biological target: Fuc(a1-2)[GalNAc(b1-3)]Gal
# Procedure, shortened: as §1
# [17] = biological target: Fuc(a1-3)GlcNAc
# Procedure, shortened: as §1
# [18] = biological target: Fuc(a1-3)[Gal(b1-4)]Glc6S
# Procedure, shortened: as §1
# [19] = biological target: Fuc(a1-3)[Gal(b1-4)]GlcNAc
# Procedure, shortened: as §1
# [20] = biological target: Fuc(a1-3)[Gal(b1-4)]GlcNAc(b1-2)Man
# Procedure, shortened: as §1
# [21] = biological target: Fuc(a1-3)[Gal(b1-4)]GlcNAc(b1-2)Man(a1-3)[Fuc(a1-3)[Gal(b1-4)]GlcNAc(b1-2)Man(a1-6)]Man(b1-4)GlcNAc(b1-4)GlcNAc
# Procedure, shortened: as §1
# [22] = biological target: Fuc(a1-3)[Gal(b1-4)]GlcNAc(b1-2)Man(a1-3)[Fuc(a1-3)[Gal(b1-4)]GlcNAc(b1-2)Man(a1-6)]Man(b1-4)GlcNAc(b1-4)[Fuc(a1-6)]GlcNAc
# Procedure, shortened: as §1
# [23] = biological target: Fuc(a1-3)[Gal(b1-4)]GlcNAc(b1-3)Gal(b1-3)[Fuc(a1-4)]GlcNAc
# Procedure, shortened: as §1
# [24] = biological target: Fuc(a1-3)[Gal(b1-4)]GlcNAc(b1-3)Gal(b1-4)[Fuc(a1-3)]GlcNAc
# Procedure, shortened: as §1
# [25] = biological target: Fuc(a1-3)[Gal(b1-4)]GlcNAc(b1-3)Gal(b1-4)[Fuc(a1-3)]GlcNAc(b1-3)Gal(b1-4)[Fuc(a1-3)]GlcNAc
# Procedure, shortened: as §1
# [26] = biological target: Fuc(a1-3)[Gal(b1-4)]GlcNAc(b1-3)GalNAc
# Procedure, shortened: as §1
# [27] = biological target: Fuc(a1-3)[Gal(b1-4)]GlcNAc(b1-6)GalNAc
# Procedure, shortened: as §1
# [28] = biological target: Fuc(a1-3)[Gal(b1-4)]GlcNAc(b1-6)[Gal(b1-3)GlcNAc(b1-3)]Gal(b1-4)Glc
# Procedure, shortened: as §1
# [29] = biological target: Fuc(a1-3)[Gal(b1-4)]GlcNAc6S
# Procedure, shortened: as §1
# [30] = biological target: Fuc(a1-3)[Gal3S(b1-4)]Glc
# Procedure, shortened: as §1
# [31] = biological target: Fuc(a1-3)[Gal3S(b1-4)]GlcNAc
# Procedure, shortened: as §1
# [32] = biological target: Fuc(a1-3)[Gal3S(b1-4)]GlcNAc6S
# Procedure, shortened: as §1
# [33] = biological target: Fuc(a1-3)[GalNAc(b1-4)]GlcNAc
# Procedure, shortened: as §1
# [34] = biological target: Fuc(a1-3)[GalNAc(b1-4)]GlcNAc6S
# Procedure, shortened: as §1
# [35] = biological target: Fuc(a1-4)GlcNAc
# Procedure, shortened: as §1
# [36] = biological target: Fuc(b1-3)GlcNAc
# Procedure, shortened: as §1
# [37] = biological target: Gal(a1-2)Gal
# Procedure, shortened: as §1
# [38] = biological target: Gal(a1-3)Gal
# Procedure, shortened: as §1
# [39] = biological target: Gal(a1-3)Gal(b1-3)GlcNAc
# Procedure, shortened: as §1
# [40] = biological target: Gal(a1-3)Gal(b1-3)GlcNAc(b1-2)Man
# Procedure, shortened: as §1
# [41] = biological target: Gal(a1-3)Gal(b1-3)GlcNAc(b1-2)Man(a1-3)[Gal(a1-3)Gal(b1-3)GlcNAc(b1-2)Man(a1-6)]Man(b1-4)GlcNAc(b1-4)GlcNAc
# Procedure, shortened: as §1
# [42] = biological target: Gal(a1-3)Gal(b1-3)GlcNAc(b1-3)GalNAc
# Procedure, shortened: as §1
# [43] = biological target: Gal(a1-3)Gal(b1-3)GlcNAc(b1-6)GalNAc
# Procedure, shortened: as §1
# [44] = biological target: Gal(a1-3)Gal(b1-3)[Fuc(a1-4)]GlcNAc(b1-2)Man(a1-3)[Gal(a1-3)Gal(b1-3)[Fuc(a1-4)]GlcNAc(b1-2)Man(a1-6)]Man(b1-4)GlcNAc(b1-4)GlcNAc
# Procedure, shortened: as §1
# [45] = biological target: Gal(a1-3)Gal(b1-4)Glc
# Procedure, shortened: as §1
binder,measurement,setting,value
LFA (Limax flavus) (protein) MSVLFLAASFLLLASFELVAAQGCPRQDPGDWIVIQRRLNADVNFYRGWADYKHGFGDLRCNFWLGNEKIHQLTSHGRYKLRVEFTFNNKSYFAEYSTFKILGEADKYKLQVGGYSGNAGDALTFHNGMAFSTNDRDNDADSIDCAKVYHGAWWYKTCHESNLNGKWGSKKYGEGLNWKAKTTFTATATSSLLKIKALK,glycan array binding signal (z-score),[1],-0.243
same,glycan array binding signal (z-score),[2],-0.175
same,glycan array binding signal (z-score),[3],-0.03
same,glycan array binding signal (z-score),[4],-0.171
same,glycan array binding signal (z-score),[5],-0.358
same,glycan array binding signal (z-score),[6],-0.018
same,glycan array binding signal (z-score),[7],-0.14
same,glycan array binding signal (z-score),[8],-0.192
same,glycan array binding signal (z-score),[9],0.433
same,glycan array binding signal (z-score),[10],-0.224
same,glycan array binding signal (z-score),[11],-0.241
same,glycan array binding signal (z-score),[12],-0.293
same,glycan array binding signal (z-score),[13],0.032
same,glycan array binding signal (z-score),[14],-0.214
same,glycan array binding signal (z-score),[15],3.52
same,glycan array binding signal (z-score),[16],-0.163
same,glycan array binding signal (z-score),[17],-0.259
same,glycan array binding signal (z-score),[18],-0.024
same,glycan array binding signal (z-score),[19],-0.221
same,glycan array binding signal (z-score),[20],-0.316
same,glycan array binding signal (z-score),[21],-0.239
same,glycan array binding signal (z-score),[22],-0.15
same,glycan array binding signal (z-score),[23],-0.063
same,glycan array binding signal (z-score),[24],-0.217
same,glycan array binding signal (z-score),[25],-0.149
same,glycan array binding signal (z-score),[26],-0.224
same,glycan array binding signal (z-score),[27],-0.138
same,glycan array binding signal (z-score),[28],-0.335
same,glycan array binding signal (z-score),[29],-0.219
same,glycan array binding signal (z-score),[30],-0.271
same,glycan array binding signal (z-score),[31],0.171
same,glycan array binding signal (z-score),[32],-0.362
same,glycan array binding signal (z-score),[33],-0.311
same,glycan array binding signal (z-score),[34],-0.349
same,glycan array binding signal (z-score),[35],-0.263
same,glycan array binding signal (z-score),[36],-0.288
same,glycan array binding signal (z-score),[37],-0.306
same,glycan array binding signal (z-score),[38],-0.132
same,glycan array binding signal (z-score),[39],0.06
same,glycan array binding signal (z-score),[40],-0.22
same,glycan array binding signal (z-score),[41],0.128
same,glycan array binding signal (z-score),[42],0.016
same,glycan array binding signal (z-score),[43],-0.242
same,glycan array binding signal (z-score),[44],0.839
same,glycan array binding signal (z-score),[45],0.013

# — the supplement of paper PMC8728848
